In the supplement of paper PMC8728848:
This excerpt belongs to a sample that is enriched for the strongest signals.

system: Gal(a1-4)GlcNAc; test: glycan array binding signal (z-score within array); higher = stronger binding; conditions: glycan notation: IUPAC condensed, linker removed
Summary of the method: (§1)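 Arrays were curated from the Consortium for Functional Glycomics database, 3228 in total, and kept only where the protein sequence was available. Binding is expressed as a within-array Z-score. This score was averaged across arrays of the same protein sequence at different concentrations or buffers and across linkers, and negative values can be read as non-binding.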

Row | Substance | glycan array binding signal (z-score)
1 | VWF (Homo sapiens) (chain not printed) | 0.253
2 | M-Ficolin A256V (Homo sapiens) (chain not printed) | -0.159
3 | H-Ficolin (Homo sapiens) (chain not printed) | 0.078
4 | L-Ficolin (Homo sapiens) (chain not printed) | 0.182
5 | M-Ficolin Y271F (Homo sapiens) (chain not printed) | -0.275
6 | Galectin-8 C-terminal CRD (Homo sapiens) (chain not printed) | -0.333

system: Gal(a1-6)Glc; test: as above; conditions: glycan notation: IUPAC condensed, linker removed
Summary of the method: as §1

Row | Substance | glycan array binding signal (z-score)
7 | Collectin K1 (Homo sapiens) (chain not printed) | -0.244
8 | M-Ficolin G221F A256V (Homo sapiens) (chain not printed) | -0.242
9 | CLEC-2 (Homo sapiens) (chain not printed) | 0.109
